# Test results: the supplement of paper PMC3334620
# In all, about 33,000 sequences were measured (“E-score (-0.5 to 0.5)”: median about -0.017, highest 2% from about 0.3 on). The list shows a part of the results.
# Target: T1, Sut1 (UniProt P53032)
# T1 sequence: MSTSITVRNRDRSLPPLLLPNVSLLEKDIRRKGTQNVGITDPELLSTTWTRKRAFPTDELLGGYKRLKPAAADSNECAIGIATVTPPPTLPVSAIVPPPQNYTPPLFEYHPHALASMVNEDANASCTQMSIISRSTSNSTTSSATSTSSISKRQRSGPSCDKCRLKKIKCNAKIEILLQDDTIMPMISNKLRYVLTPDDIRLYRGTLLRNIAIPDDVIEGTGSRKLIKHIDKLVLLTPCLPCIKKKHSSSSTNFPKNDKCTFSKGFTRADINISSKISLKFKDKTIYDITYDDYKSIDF
# Assay: PBM E-score (8-mer binding enrichment) (E-score (-0.5 to 0.5)); higher = stronger / more preferred TF binding; most listed sequences are background and not binding sites
# Settings: protein concentration: 200 nM; construct: GST-full length
# Method in brief: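 Universal all-10-mer Agilent arrays, double-stranded by primer extension on fresh or once-stripped slides, were probed with about 100-200 nM GST-tagged yeast transcription factors made by PURExpress. Fluorescent anti-GST detected bound protein, and masliner normalised the scans. E-scores from the Universal PBM Analysis Suite were given to each ungapped eight-base word pooled with its reverse complement.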
row,Sequence,PBM E-score
1,AAGTTCAG,0.0298
2,GACTGGTA,-0.0269
3,AGCACTTG,-0.283
4,AAACGCAG,0.00497
5,AGTTAAGA,0.0414
6,CGCTGACC,-0.136
7,ACCTTCCC,-0.177
8,CTAGCACC,-0.00964
9,GAGGTCGA,-0.082
10,GTGGATAA,0.0944
11,AGGCCTTG,-0.23
12,AAACAACG,0.167
13,CGGCCCGC,-0.162
14,CGGTAGAG,-0.0633
15,AGGCTGGC,-0.307
16,AGAAGCCT,0.0166
17,AGAATAAC,0.0729
18,AAAATATC,0.218
19,CGGTACAA,0.0752
20,AGTCCATG,-0.00201
21,GCTGATCC,-0.201
22,ACCTGAAC,-0.106
23,TCACCCAA,0.0728
24,GCCGTCGA,-0.19
25,ATTGCCGC,-0.0411

row,Sequence,PBM E-score
1,ATGGAGGG,-0.315
2,GGCTCCCA,-0.12
3,CAACCACC,-0.00156
4,AAGATGGG,-0.0695
5,CGTTCTAA,0.234
6,GCAGCTAC,0.0107
7,CCCATGCG,-0.249
8,TATATCAA,0.284
9,CGCCTAAA,-0.0163
10,AGGTCAGC,0.0462
11,AAGATTTA,0.0965
12,AGTACGTC,0.0481
13,ATAGATCG,0.0745
14,CACGCAGC,-0.188
15,AATACTTG,-0.0125
16,CTCTAAAA,0.11
17,CAAGTTAG,0.12
18,CCGTTGTA,0.191
19,GCGTGTAC,-0.272
20,CCACGCGC,-0.181
21,GAGTTTCA,0.137
22,GATTTCGC,0.289
23,ATTGATCA,-0.0122
24,AGTGACCC,-0.176
25,CGCGATTA,0.0599

row,Sequence,PBM E-score
1,CCCAAACA,0.00961
2,AATATCGC,0.15
3,CTTTTTCC,0.0159
4,CCGCCACA,-0.161
5,AGATATAT,0.301
6,GGTAGAAA,-0.0374
7,GCATCTCC,0.0242
8,CGCCAACC,-0.0697
9,AGCGAAAC,0.222
10,ACACTCTC,0.0313
11,AGGGTATC,-0.104
12,AACACGTC,-0.0271
13,AACAACCT,-0.0575
14,GGACAATA,0.159
15,ATAGCGGA,0.172
16,CTAGCTTA,0.115
17,AGCGGAAC,-0.0608
18,GACAGCGC,-0.0578
19,CCTTGCCG,-0.124
20,ACTCGAGG,-0.124
21,AGAAAAAT,0.28
22,AGGTCTGA,-0.095
23,AGCAGTGG,-0.175
24,GACGGAAC,-0.0244
25,TTATCCAA,0.3

row,Sequence,PBM E-score
1,AACGCCGA,0.139
2,CTGCGACC,-0.26
3,GTTAGTGA,0.0292
4,AGAATTGA,0.0242
5,AAAGTCGG,0.0971
6,ACGTGTGC,-0.409
7,AAGAGGCA,-0.0785
8,GTTGTATA,0.131
9,AAGTAGCT,-0.0847
10,AGAACAAG,0.104
11,AATGATCC,0.0339
12,AGTTAGAG,0.0352
13,CTGTTTCC,-0.0762
14,CACGTGCC,-0.186
15,CCAAGCAA,-0.15
16,AAAAATGT,0.202
17,AGACTCTG,-0.137
18,CCTGTAAC,-0.12
19,GCCATAGC,-0.25
20,AAATCATC,0.188
21,AGGAAATC,0.0669
22,CCACAAAA,0.0574
23,ACGTTGCG,0.0202
24,CCCAACAC,-0.157
25,CACTATGA,-0.0253

row,Sequence,PBM E-score
1,ACTATAAT,0.224
2,ACTTCGGC,0.14
3,ATCAAACG,0.132
4,GCGATCGA,0.0863
5,GCTAATTA,0.148
6,ATCCCGAT,0.0315
7,ATTGAAAA,0.213
8,ACCCTTCC,-0.0492
9,CAGATTCA,-0.0309
10,GTGGTAAA,0.128
11,GATTCTGC,-0.0953
12,CCAACTAA,0.22
13,CCAGAATA,0.105
14,AAAAACTC,0.211
15,AACATCTA,0.0446
16,ACCGTGCA,-0.0643
17,CCACTTCA,-0.0819
18,CACGGTCC,-0.227
19,ATTACTGC,0.0981
20,AGCTCCCA,-0.15
21,GTAGAGAA,-0.0104
22,ACGCCCAT,-0.0055
23,CATCAGAC,-0.167
24,CACTATTA,0.0757
25,CGGTTTAA,0.0957

row,Sequence,PBM E-score
1,CGTTAGGA,-0.0176
2,GCAGAAAA,0.119
3,CCATGAGG,-0.24
4,CGATATTA,0.271
5,ACCCATGG,-0.31
6,CTTTAGCA,-0.158
7,CGGAAGAC,0.162
8,AAGTTGGA,0.0731
9,ACATGTGG,-0.0327
10,GCCTTAAA,0.0657
11,CGCGGCCC,0.0122
12,GAGCTGAC,0.15
13,CTTTCATC,-0.0675
14,TCATACGA,0.103
15,AGCTTCGA,-0.0617
16,AGGATTCG,0.00593
17,CATGAGTA,-0.0232
18,ACTGTCTC,-0.00926
19,TCTGGACA,-0.174
20,ATTGTGCG,-0.185
21,ACAGAGCG,-0.205
22,ACTTAAGT,0.0916
23,CATTACCG,0.0505
24,CGATTAAC,-0.0902
25,GAGGGGAC,-0.269

row,Sequence,PBM E-score
1,ACACATCA,0.033
2,ACAGACCG,-0.129
3,CCCGTCTA,-0.053
4,ACATAACA,0.221
5,AGGTGACA,-0.0665
6,AATGGCAG,-0.159
7,AGTCACCA,-0.0604
8,ATATTTGA,0.177
9,ATGCCTTA,-0.21
10,AATCATGT,0.00747
11,GGTCCTCA,0.082
12,GCCCATGA,-0.222
13,GCACGCCC,-0.0155
14,GAGTTTGC,-0.00989
15,CACTTAAG,0.137
16,CTAAGCTC,-0.0514
17,ACGGCCCT,-0.262
18,ATGGTGCG,-0.188
19,CTCAACAG,-0.0499
20,GCTAAATA,-0.0182
21,CTATCTTA,0.108
22,CAAATGTA,0.257
23,CCGGGTGC,-0.0863
24,CCGACCCG,-0.109
25,GACGATTA,-0.0644

row,Sequence,PBM E-score
1,GGAGTTAC,0.367
2,AATCACAC,0.0234
3,GAAGACGC,-0.078
4,CACCCCGG,0.0471
5,AGGTTACT,0.137
6,CAGCGGAA,0.0124
7,CAATATCA,0.188
8,GTCAGAAC,-0.175
9,CACAATCG,-0.17
10,ACCCGGGA,-0.109
11,GCGGAGTA,0.458
12,CCGCTAAC,0.0198
13,GAAACAGC,-0.117
14,TAGGCGCA,-0.0677
15,CCATGGCA,-0.095
16,ACAGAACA,0.118
17,ACTCCGCA,0.473
18,CCTGCTAC,-0.0632
19,AATGGGCC,-0.149
20,ATCACAGC,0.0636
21,CCCATCAC,-0.217
22,CGAGAAGC,0.0567
23,ACCGGTCG,-0.114
24,CTGTCATA,0.0449
25,CCCTGATC,-0.347

row,Sequence,PBM E-score
1,AGGAGGCG,-0.187
2,GAGGCACA,-0.0648
3,CGCGGTTC,-0.0131
4,TAAGCGTA,-0.0359
5,GCCCAGTA,-0.0398
6,TACCCTCA,-0.132
7,AGGGGCTC,-0.263
8,CCAGCGCA,-0.12
9,GTTACAAA,0.197
10,AAGGTACC,-0.104
11,CCTCTTCC,-0.334
12,ACTTGTAC,0.0562
13,ATGGTAGC,-0.0733
14,GACGAACC,-0.0142
15,CTTAGACC,0.0409
16,ACAGTGAG,-0.144
17,ACCGGCAC,0.0333
18,GCTCACTA,-0.0683
19,CCTTCCAC,-0.294
